Measured values published in patent US11634486B2, “Anti-SEZ6L2 antibodies and antibody drug conjugates” (Bluefin BioMedicine, Inc., priority 2016, dated 2023).

What was measured:
Assay in all cases: Flow cytometry specificity on overexpressing 293 cells
Assay type in all cases: binding
Settings in all cases: primary antibody 1 ug/ml, live cells on ice
[1] = target: T1, SEZ6 (293-SEZ6) (Homo sapiens, UniProt Q53EL9)
T1 construct: expressed in transfected cells; host or cells: HEK 293
T1 sequence (Q53EL9 20-994): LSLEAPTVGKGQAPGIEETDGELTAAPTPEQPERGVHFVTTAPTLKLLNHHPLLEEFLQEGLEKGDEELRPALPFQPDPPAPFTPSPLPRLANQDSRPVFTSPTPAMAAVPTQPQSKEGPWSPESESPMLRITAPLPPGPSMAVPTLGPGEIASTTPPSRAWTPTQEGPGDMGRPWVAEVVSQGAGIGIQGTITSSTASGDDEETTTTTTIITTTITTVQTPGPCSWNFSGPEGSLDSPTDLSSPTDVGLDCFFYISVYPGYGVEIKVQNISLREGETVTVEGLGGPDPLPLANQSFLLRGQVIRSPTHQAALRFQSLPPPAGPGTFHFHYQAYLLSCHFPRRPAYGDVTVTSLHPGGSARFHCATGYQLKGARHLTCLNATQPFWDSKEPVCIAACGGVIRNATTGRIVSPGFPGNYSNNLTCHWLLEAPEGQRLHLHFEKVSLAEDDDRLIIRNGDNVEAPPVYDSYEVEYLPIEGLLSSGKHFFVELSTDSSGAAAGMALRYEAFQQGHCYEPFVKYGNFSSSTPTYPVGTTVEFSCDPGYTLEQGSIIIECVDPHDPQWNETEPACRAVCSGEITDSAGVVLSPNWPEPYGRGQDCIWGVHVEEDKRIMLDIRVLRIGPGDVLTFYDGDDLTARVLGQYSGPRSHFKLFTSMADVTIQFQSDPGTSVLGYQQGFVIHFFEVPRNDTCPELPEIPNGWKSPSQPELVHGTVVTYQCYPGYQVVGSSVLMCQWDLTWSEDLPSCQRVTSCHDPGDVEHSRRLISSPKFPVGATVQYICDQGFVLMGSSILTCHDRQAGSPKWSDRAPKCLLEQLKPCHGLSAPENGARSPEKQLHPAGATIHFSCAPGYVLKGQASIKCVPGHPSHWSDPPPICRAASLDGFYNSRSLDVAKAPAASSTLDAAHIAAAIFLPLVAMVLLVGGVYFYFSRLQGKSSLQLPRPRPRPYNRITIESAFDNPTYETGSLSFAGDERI
Protocol: (§1) In order to assess whether SEZ6L2 antibody modulators immunospecifically associate with human SEZ6L2, and to determine whether the same modulators cross-react with SEZ6 and SEZ6L, flow cytometry was performed using a MACSquant™ as per the manufacturer's instructions. More particularly, modulators were tested for cross reactivity to cell lines that overexpress the human homologs of SEZ6 (293-SEZ6), SEZ6L (293-SEZ6L), and SEZ6L2 (293-SEZ6L2).
(§2) Briefly, staining for flow cytometry was performed in lx cold PBS with 0.5% BSA. Primary antibodies (1 ug/ml) were incubated with live cells on ice for one hour. After washing in the same buffer, cells were incubated with Alexa Fluro® 488-conjugated anti-human IgG secondary antibody @1:1000 (709-546-149, Jackson ImmunoResearch) on ice in the dark. After a 30 minute incubation, cells were washed in the same buffer and re-suspended in buffer plus propidium iodide (PI) to identify live cells. As a negative control, cells were incubated with secondary antibody alone. Acquisition of the data was performed on a MACSQuant® Flow Cytometer (Miltenyi Biotec) and analyzed with FlowJo software.

[2] = target: T2, SEZ6L (293-SEZ6L) (Homo sapiens, UniProt Q9BYH1)
T2 construct: expressed in transfected cells; host or cells: HEK 293
T2 sequence (Q9BYH1 29-1024): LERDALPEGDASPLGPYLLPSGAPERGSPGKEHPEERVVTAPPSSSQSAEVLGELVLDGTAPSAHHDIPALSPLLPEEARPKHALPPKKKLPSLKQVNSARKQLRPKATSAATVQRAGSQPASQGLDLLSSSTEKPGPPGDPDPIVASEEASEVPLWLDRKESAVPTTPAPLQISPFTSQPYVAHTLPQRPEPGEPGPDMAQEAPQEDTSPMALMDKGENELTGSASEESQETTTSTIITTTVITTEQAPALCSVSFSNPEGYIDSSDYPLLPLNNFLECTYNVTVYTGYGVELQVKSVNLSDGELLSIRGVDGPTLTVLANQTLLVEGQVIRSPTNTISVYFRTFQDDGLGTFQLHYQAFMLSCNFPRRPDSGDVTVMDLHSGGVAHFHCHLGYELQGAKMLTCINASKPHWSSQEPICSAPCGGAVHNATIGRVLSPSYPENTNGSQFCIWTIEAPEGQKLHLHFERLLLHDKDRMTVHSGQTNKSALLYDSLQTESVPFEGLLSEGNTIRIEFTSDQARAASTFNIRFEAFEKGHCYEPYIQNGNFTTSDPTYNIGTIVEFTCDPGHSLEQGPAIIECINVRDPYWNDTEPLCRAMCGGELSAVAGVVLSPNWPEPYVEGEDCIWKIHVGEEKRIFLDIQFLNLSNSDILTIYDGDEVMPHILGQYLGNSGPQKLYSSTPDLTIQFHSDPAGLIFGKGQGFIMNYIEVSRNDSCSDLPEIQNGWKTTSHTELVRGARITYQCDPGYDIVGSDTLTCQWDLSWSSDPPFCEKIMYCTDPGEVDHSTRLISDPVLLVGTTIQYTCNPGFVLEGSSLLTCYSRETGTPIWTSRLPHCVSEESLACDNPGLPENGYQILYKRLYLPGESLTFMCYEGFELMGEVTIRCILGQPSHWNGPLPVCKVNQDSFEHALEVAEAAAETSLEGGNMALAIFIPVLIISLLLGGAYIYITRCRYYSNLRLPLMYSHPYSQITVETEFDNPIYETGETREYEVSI
Protocol: as §1, §2

[3] = target: T3, SEZ6L2 (293-SEZ6L2) (Homo sapiens, UniProt Q6UXD5)
T3 construct: cDNA encoding the complete mature human SEZ6L2 protein containing a C-terminal FLAG tag was purchased from Origene; FLAG (C); host or cells: HEK 293
Protocol: as §1, §2

T3 sequence (Q6UXD5 28-910): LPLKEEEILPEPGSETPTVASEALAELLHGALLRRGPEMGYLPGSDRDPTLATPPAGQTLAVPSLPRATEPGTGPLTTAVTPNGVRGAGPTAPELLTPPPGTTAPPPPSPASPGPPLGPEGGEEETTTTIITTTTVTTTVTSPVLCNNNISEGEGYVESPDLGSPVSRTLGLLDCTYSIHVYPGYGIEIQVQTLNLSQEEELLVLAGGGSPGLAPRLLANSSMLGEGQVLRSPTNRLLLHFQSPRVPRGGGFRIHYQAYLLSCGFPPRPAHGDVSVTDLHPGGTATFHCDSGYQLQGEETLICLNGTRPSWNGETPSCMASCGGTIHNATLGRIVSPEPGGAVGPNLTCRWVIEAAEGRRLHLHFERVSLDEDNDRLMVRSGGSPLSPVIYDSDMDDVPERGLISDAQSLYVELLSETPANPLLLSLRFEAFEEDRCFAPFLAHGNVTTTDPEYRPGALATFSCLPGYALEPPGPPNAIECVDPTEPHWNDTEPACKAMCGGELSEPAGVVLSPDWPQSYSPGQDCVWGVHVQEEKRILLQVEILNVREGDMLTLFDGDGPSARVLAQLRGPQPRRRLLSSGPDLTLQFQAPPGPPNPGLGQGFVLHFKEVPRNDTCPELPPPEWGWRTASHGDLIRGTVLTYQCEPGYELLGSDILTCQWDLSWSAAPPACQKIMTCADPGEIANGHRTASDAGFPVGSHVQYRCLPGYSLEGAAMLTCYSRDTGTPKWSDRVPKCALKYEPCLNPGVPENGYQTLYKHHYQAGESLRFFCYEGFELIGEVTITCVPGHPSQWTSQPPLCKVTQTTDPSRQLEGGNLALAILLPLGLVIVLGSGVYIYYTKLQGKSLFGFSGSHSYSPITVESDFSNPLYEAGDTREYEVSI

B1: 106: human anti-SEZ6L2 antibody, VH SEQ ID NO: 90, VL SEQ ID NO: 94 (antibody, V domains shown)
VH: QVQLQESGPGLVKPSETLSLTCTVSGGSISSYYWSWIRQPPGKGLEWIGYIYNSGSTNYNPSLKSRVTISVDTSKNQFSLKLSSVTAADTAVYYCARRGDQGYWYFDLWGRGTLVTVSS
VL: EIVMTQSPATLSVSPGERATLSCRASQSVSSNLAWYQQKPGQAPRLLIYGASTRATGIPARFSGSGSGTEFTLTISSLQSEDFAVYYCQQYNNWPPTFGQGTKVEIK
binding to 293-SEZ6 cells by flow cytometry [1]: no detectable binding
binding to 293-SEZ6L cells by flow cytometry [2]: no detectable binding
binding to 293-SEZ6L2 cells by flow cytometry [3]: recognize a cell line that overexpresses SEZ6L2
